In PubChem BioAssay AID504832 (National Center for Advancing Translational Sciences (NCATS), 2011):
In all, about 310,000 compounds went through this assay and about 18,000 (5.8%) were called active. Inconclusive means that the source gave no clear call. Such entries were picked first, then a sample of the others. Calls follow the shape of the dose curve; as a rule, active = well fitted inhibition curve with a large enough effect; inconclusive = small, poorly fitted or top-dose-only effect, or another doubt; inactive = no such curve, though single readings can be large or run the other way. No potency is given beside an inconclusive call; the fits are too rough.
Potency is read from the fitted curve at half-maximal effect; tags tell the direction and shape of the fitted curve.

Assay: Primary qHTS for delayed death inhibitors of the malarial parasite plastid, 48 hour incubation
Details: P. falciparum luciferase growth in erythrocytes; series mostly up to 28.7 µM
Method in brief: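 Cell-based growth assay: transgenic P. falciparum expressing firefly luciferase, cultured in red cells within RPMI 1640 containing 0.5% w/v Albumax, 24 mM bicarbonate and gentamycin. A drop in luciferase activity indicates inhibition.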
With `CCCCNc1c(-c2ccc(SC(C)CC)cc2)nc2ccccn12` (stereo not drawn) the Potency was “inactive”.
With `Cc1ccc(S(=O)(=O)N2CCCCC2)cc1NC(=O)C1CCC1` the Potency was inconclusive [inhibitor, partial curve, poor fit].
For `CCCCN(CCCC)C(=O)C[n+]1cccc(/C=N/O)c1`, the Potency was inconclusive [inhibitor, partial curve, poor fit].
For `COC(=O)c1ccc(CSc2nc3c(c(=O)n2-c2ccc(F)cc2)SCC3)o1`, the Potency was inconclusive [inhibitor, partial curve].
In the case of `NS(=O)(=O)c1ccc(CCNC(=S)Nc2ccc(S(N)(=O)=O)cc2)cc1`, the Potency is reported as inconclusive [inhibitor, single point].
For `Cc1ccccc1Cn1cc(NC(=O)c2cc(C3CC3)on2)cn1`, the Potency was inconclusive [inhibitor, single point].
For `O=C1/C(=C/c2ccc(O)cc2)CCc2ccc([N+](=O)[O-])cc21`, the Potency was “inactive”.
In the case of `CCC(C(=O)NC1CCCCC1)N(C(=O)c1snc(C(N)=O)c1N)c1ccc(OC)cc1OC` (stereo not drawn), the Potency is reported as inconclusive [inhibitor, partial curve, poor fit].
For `COc1ccc(CCN(C)C(=O)CCc2nnc(-c3ccccc3)o2)cc1OC`, the Potency was “inactive”.
For `Cc1sc2ncnc(N3CCC(C(=O)Nc4ccc(Br)cc4Br)CC3)c2c1C`, the Potency was inconclusive [inhibitor, single point].
With `CC1=CC(=O)C(C(C)C)=CC1=NC(=O)c1ccc(C)cc1` the Potency was inconclusive [inhibitor, partial curve].
For `CC(C)c1ccc(N(CC(=O)NC2CCCCC2)C(=O)CCC(=O)Nc2ccccn2)cc1`, the Potency was inconclusive [inhibitor, partial curve, poor fit].
In the case of `CCn1cc(C(=O)NCc2cccs2)c(=O)c2cc(S(=O)(=O)N3CCOCC3)ccc21`, the Potency is reported as inconclusive [inhibitor, single point].
For `CCCc1n(CC(O)COC2CCCCC2)c2ccccc2[n+]1C` (stereo not drawn), the Potency was active: 4.15 µM.
For `CC(C)c1cc(C(N)=O)c(NC(=O)c2cccc(COc3ccc(Br)cc3)c2)s1`, the Potency was inconclusive [inhibitor, single point].
In the case of `Cc1oc(-c2cccc(C(F)(F)F)c2)nc1CN1CCOCC1`, the Potency is reported as inconclusive [inhibitor, single point].
With `CCOC(=O)CNC(=O)N1CCc2ccc(NC(=O)c3ccccc3OC)cc2C1` the Potency was inconclusive [inhibitor, partial curve, poor fit].
For `COC(=O)C1=C(C)NC2=C(C(=O)C(C(=O)OC)C(c3ccc(OC)cc3)C2)C1c1ccccn1` (stereo not drawn), the Potency was inconclusive [inhibitor, partial curve].
With `COC(CNC(=O)c1ccc2c(=O)n(Cc3ccc(Cl)cc3)c(=S)[nH]c2c1)OC` the Potency was “inactive”.
With `CC12CCC(C(=O)Nc3cc(Cl)ccc3Cl)(C(Br)C1=O)C2(C)C` (stereo not drawn) the Potency was inconclusive [inhibitor, single point].
With `O=c1[nH]c(C2CCN(S(=O)(=O)c3ccc([N+](=O)[O-])cc3)CC2)nc2c1nnn2Cc1ccccc1` the Potency was active: 5.22 µM.
With `CCn1cc(C(=O)NCCC2=CCCCC2)c(=O)c2cc(S(=O)(=O)N(C)C)ccc21` the Potency was inconclusive [inhibitor, partial curve].
With `CCN(C(=O)CSc1ncccn1)C1CCS(=O)(=O)C1` (stereo not drawn) the Potency was “inactive”.
In the case of `CCOC(=O)N1CCN(Cc2nc3c(c(=O)n(C)c(=O)n3C)n2Cc2ccccc2C)CC1`, the Potency is reported as active: 10.4 µM.
For `Cc1cc(NC(=O)CCC(=O)N(c2ccc(F)cc2)C(C(=O)NC2CCCC2)c2ccc(C)o2)no1` (stereo not drawn), the Potency was active: 9.28 µM.
In the case of `COc1ccc(S(=O)(=O)Cc2ccc(C(=O)NCc3ccc(C)cc3)o2)cc1`, the Potency is reported as “inactive”.
For `O=C1CN(C(=O)COC(=O)c2ccc(N3CCCCCC3)c([N+](=O)[O-])c2)c2ccccc2N1`, the Potency was inconclusive [inhibitor, partial curve].
In the case of `O=C(CSc1nnc(-c2ccc(Br)cc2)o1)N1CCN(C(=O)c2ccco2)CC1`, the Potency is reported as inconclusive [inhibitor, single point].
With `CCCN1CCc2c(sc(NC(=O)c3ccc(S(=O)(=O)N4CCN(C(=O)OCC)CC4)cc3)c2C(N)=O)C1` the Potency was active: 10.4 µM.
For `CCCCn1c(N)c(N(CCOC)C(=O)C2CCN(S(=O)(=O)c3ccccc3)CC2)c(=O)[nH]c1=O`, the Potency was “inactive”.
For `O=C(Nc1ccc(C(=O)N2CCN(c3ccc(F)cc3)CC2)cc1)C1=CSCCO1`, the Potency was inconclusive [inhibitor, single point].
In the case of `FC(F)(F)c1ccc(Oc2ccc3cc(Br)ccc3c2)nc1`, the Potency is reported as inconclusive [inhibitor, single point].
In the case of `CCOc1ccc(N2C(=O)CC(=O)NC2=O)cc1`, the Potency is reported as “inactive”.
In the case of `CCn1c(=O)n(-c2ccc(Cl)cc2)c(=O)c2c3c(sc21)COC(C)(C)C3`, the Potency is reported as inconclusive [inhibitor, single point].
For `CN(C)c1nc2sc3c(c2c(=O)n1C)CC(C)(C)OC3`, the Potency was “inactive”.
With `CS(=O)(=O)c1ccc(Cl)c(NC(=O)C2CCCCN2S(=O)(=O)c2ccccc2)c1` (stereo not drawn) the Potency was inconclusive [inhibitor, single point].
With `Cc1ccc(-c2nn(-c3ccc(F)cc3)cc2C(=O)NCC2CCCO2)cc1` (stereo not drawn) the Potency was “inactive”.
For `CCOc1ccc(C(C)NC(=O)c2cc(=O)[nH]c3ccccc23)cc1OCC` (stereo not drawn), the Potency was “inactive”.
For `CC(=O)NN1C(=O)c2ccccc2NC1c1ccc(N(C)C)cc1` (stereo not drawn), the Potency was “inactive”.
For `CC1=C(C(=O)OC(C)(C)C)C(c2cccc3ccccc23)NC(=O)N1` (stereo not drawn), the Potency was inconclusive [inhibitor, partial curve, poor fit].
With `CCOc1ccccc1C1C2CCCCC2(O)CCN1C(=O)c1cccs1` (stereo not drawn) the Potency was inconclusive [inhibitor, single point].
With `COc1ccccc1CNC(=O)COc1ccccc1C(=O)c1cnn(-c2ccccc2)c1` the Potency was “inactive”.
In the case of `C#CCOCCOCCOCCNc1nc(N2CCN(C(=O)CCCCCCCCCCNC(=O)[C@@H](CCSC)n3cc(CCO)nn3)CC2)nc(N2CCN(C(=O)CCCCCCCCCCNC(=O)[C@H](CCSC)n3cc(CCO)nn3)CC2)n1`, the Potency is reported as active: 0.329 µM.
In the case of `CCN1CCN(c2c(Cl)cccc2NC(=O)c2ccco2)CC1`, the Potency is reported as “inactive”.
For `CCC(=O)Nc1cc(C(F)(F)F)ccc1N1CCCC1`, the Potency was “inactive”.
With `COC(=O)c1cccc(C23CC4(C2)[C@H](CN(Cc2ccc(C(F)(F)F)cc2)[C@@H]4c2ccccc2)C3c2ccc(Cl)nc2)c1` (stereo partly drawn) the Potency was inconclusive [inhibitor, partial curve].
For `OC(COc1ccc(C2C=CCC2)cc1)CN1CCCCC1` (stereo not drawn), the Potency was inconclusive [inhibitor, full curve, poor fit].
In the case of `COc1ccc(C(=O)Nc2ccc(CN3CCCCC3)cc2)cc1`, the Potency is reported as “inactive”.
In the case of `CCN1C(=O)c2ccccc2Sc2ccc(C(=O)NCCC(C)C)cc21`, the Potency is reported as inconclusive [inhibitor, single point].
With `CC1(C)CC(NS(=O)(=O)c2ccc3ccccc3c2)CC(C)(C)N1` the Potency was “inactive”.
For `CCCn1c2ccc(F)cc2c2nnc(SCCN3CCOCC3)nc21`, the Potency was inconclusive [inhibitor, single point].
In the case of `COc1cc(Nc2cc(C)nc3ncnn23)cc(OC)c1OC`, the Potency is reported as active: 9.28 µM.
For `COc1ccc(-c2ccc([C@H]3[C@H]4C=CC[C@@H](C)[C@@H]4C(=O)N3Cc3ccccc3)c(F)c2)cc1`, the Potency was active: 11.7 µM.
In the case of `CCn1c(=O)c2ccccc2n(CC(=O)NCCC2=CCCCC2)c1=O`, the Potency is reported as inconclusive [inhibitor, partial curve, poor fit].
For `Cn1cc(C(F)(F)F)nc1-c1ccc(OCC(O)CNCCOc2ccc(O)c(C(N)=O)c2)cc1` (stereo not drawn), the Potency was active: 9.28 µM.
With `COc1ccccc1N1CC(O)=C(c2nc3ccccc3c(=O)[nH]2)C1=N` the Potency was active: 9.28 µM.
With `COCCN1C(=O)c2ccccc2C(C(=O)N2CCN(c3ccccn3)CC2)C1c1ccc(F)cc1` (stereo not drawn) the Potency was inconclusive [inhibitor, single point].
With `CCN(C(=O)CSc1nc(-c2cccs2)nc2ccccc12)C1CCS(=O)(=O)C1` (stereo not drawn) the Potency was inconclusive [inhibitor, single point].
With `O=C(O)c1cc(C(=O)O)c(-c2ccccc2)c(C(=O)O)c1` the Potency was active: 2.94 µM.
For `CCc1nnc(N/N=C/c2ccccc2F)n1N`, the Potency was “inactive”.
In the case of `O=S(=O)(c1ccc(-c2ccccn2)s1)N1CCC2(CC1)OCCO2`, the Potency is reported as “inactive”.
With `CC(=O)c1c(C)n(CC(=O)NCc2ccco2)c2ccccc12` the Potency was inconclusive [inhibitor, single point].
With `CC1CCN(c2ccc(S(=O)(=O)Nc3cc(C(=O)O)cc(C(=O)O)c3)cc2[N+](=O)[O-])CC1` the Potency was inconclusive [inhibitor, single point].
In the case of `Cc1ccccc1CC1(CO)CCCN(Cc2ccc3c(c2)OCCO3)C1` (stereo not drawn), the Potency is reported as inconclusive [inhibitor, single point].
With `O=C(CN1CCOCC1)NNC(=S)Nc1ccccc1` the Potency was “inactive”.
In the case of `CCCCCCSc1ccc([C@H]2N[C@@](Cc3ccccc3)(C(=O)OC)[C@H]3C(=O)N(CC)C(=O)[C@@H]23)cc1`, the Potency is reported as active: 0.828 µM.
With `CC(Oc1ccccc1)C(=O)N1CCN(c2ccc(N3CCCCC3)nn2)CC1` (stereo not drawn) the Potency was inconclusive [inhibitor, single point].
With `CC(C)(C)OC(=O)NCCCCCNC(=O)c1[nH]cnc1C(=O)Nc1ccccc1` the Potency was inconclusive [inhibitor, single point].
